Measurements: the supplement of paper PMC11876631
Positions count from the first letter of the chain named. Names and notes keep the numbering of the source. ± gives the standard deviation of the averaged measurements. Laboratory Escherichia coli strains with one amino-acid change in an essential protein, pooled on minimal glucose agar with carbenicillin or gentamicin at twice the control MIC (plus kanamycin and chloramphenicol for the plasmids), 48 h. Fold change of barcode share against drug-free plates; higher = less susceptible. Active = above 20 in both replicates (the paper's putatively resistant). '<' = one read or none on drug, '>' = one read or none on a drug-free plate. Shares are relative, so most strains fall below 1 when a few take over. Listed are strains with at least 15 reads on both drug-free plates, and hits; most hits rest on fewer reference reads. Replicate rank correlation about 0.5. Edits are read from barcodes.

B1: lpxB I26A (protein)
chain: MTEQRPLTIALVAGETSGDILGAGLARALKEHVPNARFVGVAGPRMQAEGCEAWYEMEELAVMGIVEVLGRLRRLLHIRADLTKRFGELKPDVFVGIDAPDFNITLEGNLKKQGIKTIHYVSPSVWAWRQKRVFKIGRATDLVLAFLPFEKAFYDKYNVPCRFIGHTMADAMPLDPDKNAARDVLGIPHDAHCLALLPGSRGAEVEMLSADFLKTAQLLRQTYPDLEIVVPLVNAKRREQFERIKAEVAPDLSVHLLDGMGREAMVASDAALLASGTAALECMLAKCPMVVGYRMKPFTFWLAKRLVKTDYVSLPNLLAGRELVKELLQEECEPQKLAAALLPLLANGKTSHAMHDTFRELHQQIRCNADEQAAQAVLELAQ
B2: accA M114W (protein)
chain: MSLNFLDFEQPIAELEAKIDSLTAVSRQDEKLDINIDEEVHRLREKSVELTRKIFADLGAWQIAQLARHPQRPYTLDYVRLAFDEFDELAGDRAYADDKAIVGGIARLDGRPVWIIGHQKGRETKEKIRRNFGMPAPEGYRKALRLMQMAERFKMPIITFIDTPGAYPGVGAEERGQSEAIARNLREMSRLGVPVVCTVIGEGGSGGALAIGVGDKVNMLQYSTYSVISPEGCASILWKSADKAPLAAEAMGIIAPRLKELKLIDSIIPEPLGGAHRNPEAMAASLKAQLLADLADLDVLSTEDLKNRRYQRLMSYGYA
B3: lpxB I26Q (protein)
chain: B1 chain with A26Q
B4: lpxB V39A (protein)
chain: B1 chain with A26I, V39A
B5: lpxB V39W (protein)
chain: B1 chain with A26I, V39W
B6: lpxB V39Q (protein)
chain: B1 chain with A26I, V39Q
B7: lpxB L273A (protein)
chain: B1 chain with A26I, L273A
B8: lpxB L273W (protein)
chain: B1 chain with A26I, L273W
B9: lpxB L273Q (protein)
chain: B1 chain with A26I, L273Q
B10: lpxB L273D (protein)
chain: B1 chain with A26I, L273D
B11: lpxB L273P (protein)
chain: B1 chain with A26I, L273P
B12: lpxC L66D (protein)
chain: MIKQRTLKRIVQATGVGLHTGKKVTLTLRPAPANTGVIYRRTDLNPPVDFPADAKSVRDTMLCTCDVNEHDVRISTVEHLNAALAGLGIDNIVIEVNAPEIPIMDGSAAPFVYLLLDAGIDELNCAKKFVRIKETVRVEDGDKWAEFKPYNGFSLDFTIDFNHPAIDSSNQRYAMNFSADAFMRQISRARTFGFMRDIEYLQSRGLCLGGSFDCAIVVDDYRVLNEDGLRFEDEFVRHKMLDAIGDLFMCGHNIIGAFTAYKSGHALNNKLLQAVLAKQEAWEYVTFQDDAELPLAFKAPSAVLA
B13: lpxC L66P (protein)
chain: B12 chain with D66P

Each protein was assayed against Escherichia coli (laboratory strain) (assay: barcode share on antibiotic plates over drug-free plates; higher = less susceptible). Conditions: antibiotic: carbenicillin; 2× MIC (3.1 µg/mL).
Method: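 A pool of E. coli strains, each edited to carry one amino-acid change in an essential protein, was grown for 48 h on minimal glucose agar with or without antibiotic; strain barcodes were sequenced; mean of two replicates.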
For B1, the “fold change of barcode share” value was 0.393 ± 0.08. For B2, the “fold change of barcode share” value was 0.289 ± 0.029. In the case of B3, the “fold change of barcode share” value is reported as 0.441 ± 0.016. In the case of B4, the “fold change of barcode share” value is reported as 0.266 ± 0.1. In the case of B5, the “fold change of barcode share” value is reported as 0.207 ± 0.15. B6 was tested, and the “fold change of barcode share” value was 0.265 ± 0.16. For B7, the “fold change of barcode share” value was 0.3493 ± 0.0026. For B8, the “fold change of barcode share” value was 0.372 ± 0.031. In the case of B9, the “fold change of barcode share” value is reported as 0.43 ± 0.013. In the case of B10, the “fold change of barcode share” value is reported as 0.539 ± 0.17. With B11 the “fold change of barcode share” value was 0.419 ± 0.02. For B12, the “fold change of barcode share” value was 0.325 ± 0.035. For B13, the “fold change of barcode share” value was 0.355 ± 0.12.

Same assay, conditions: antibiotic: gentamicin; 2× MIC (MIC 0.45 µg/mL)
In the case of B1, the “fold change of barcode share” value is reported as 0.00488 ± 0.0037. For B2, the “fold change of barcode share” value was under 0.00292. B3 was tested, and the “fold change of barcode share” value was 0.00914 ± 0.0066. In the case of B4, the “fold change of barcode share” value is reported as under 0.0119. For B5, the “fold change of barcode share” value was 0.876 ± 1.2. In the case of B6, the “fold change of barcode share” value is reported as under 0.0133. For B7, the “fold change of barcode share” value was 0.0039 ± 0.0024. For B8, the “fold change of barcode share” value was 0.0173 ± 0.011. With B9 the “fold change of barcode share” value was 0.00336 ± 0.0019. With B10 the “fold change of barcode share” value was 0.00602 ± 0.0064. For B11, the “fold change of barcode share” value was 0.00471 ± 0.0012. In the case of B12, the “fold change of barcode share” value is reported as under 0.0156. In the case of B13, the “fold change of barcode share” value is reported as under 0.0148.
